Results reported in the supplement of paper PMC11741623.
The list shows a part of the results. Interaction screen of human proteins with wild-type SARS-CoV-2 proteins by split-DHFR complementation in yeast, 1 µg/mL methotrexate. Value = fitness of the pair (three or more lineages) minus that of the viral protein without a human partner, on a scale set by negative (0) and fused positive (1) controls, mean of up to three cultures; higher = more likely to interact. Active = false discovery rate below 0.05 (one-sided t-test) in at least one culture. Nearly all pairs are not hits, and differences among them are mostly noise (correlation between cultures about 0.3); most hits were seen in one culture only. Human sequences are the Swiss-Prot entries looked up by gene name; the clone may be another isoform. NSP2 values were corrected by the authors for a growth advantage. Listed are human proteins with a hit and a random twelfth of the others.

B1: GBP5, Q96PP8 (protein)
chain: MALEIHMSDPMCLIENFNEQLKVNQEALEILSAITQPVVVVAIVGLYRTGKSYLMNKLAGKNKGFSVASTVQSHTKGIWIWCVPHPNWPNHTLVLLDTEGLGDVEKADNKNDIQIFALALLLSSTFVYNTVNKIDQGAIDLLHNVTELTDLLKARNSPDLDRVEDPADSASFFPDLVWTLRDFCLGLEIDGQLVTPDEYLENSLRPKQGSDQRVQNFNLPRLCIQKFFPKKKCFIFDLPAHQKKLAQLETLPDDELEPEFVQQVTEFCSYIFSHSMTKTLPGGIMVNGSRLKNLVLTYVNAISSGDLPCIENAVLALAQRENSAAVQKAIAHYDQQMGQKVQLPMETLQELLDLHRTSEREAIEVFMKNSFKDVDQSFQKELETLLDAKQNDICKRNLEASSDYCSALLKDIFGPLEEAVKQGIYSKPGGHNLFIQKTEELKAKYYREPRKGIQAEEVLQKYLKSKESVSHAILQTDQALTETEKKKKEAQVKAEAEKAEAQRLAAIQRQNEQMMQERERLHQEQVRQMEIAKQNWLAEQQKMQEQQMQEQAAQLSTTFQAQNRSLLSELQHAQRTVNNDDPCVLL
B2: PIP5K1A, Q99755 (protein)
chain: MASASSGPSSSVGFSSFDPAVPSCTLSSAASGIKRPMASEVLEARQDSYISLVPYASGMPIKKIGHRSVDSSGETTYKKTTSSALKGAIQLGITHTVGSLSTKPERDVLMQDFYVVESIFFPSEGSNLTPAHHYNDFRFKTYAPVAFRYFRELFGIRPDDYLYSLCSEPLIELCSSGASGSLFYVSSDDEFIIKTVQHKEAEFLQKLLPGYYMNLNQNPRTLLPKFYGLYCVQAGGKNIRIVVMNNLLPRSVKMHIKYDLKGSTYKRRASQKEREKPLPTFKDLDFLQDIPDGLFLDADMYNALCKTLQRDCLVLQSFKIMDYSLLMSIHNIDHAQREPLSSETQYSVDTRRPAPQKALYSTAMESIQGEARRGGTMETDDHMGGIPARNSKGERLLLYIGIIDILQSYRFVKKLEHSWKALVHDGDTVSVHRPGFYAERFQRFMCNTVFKKIPLKPSPSKKFRSGSSFSRRAGSSGNSCITYQPSVSGEHKAQVTTKAEVEPGVHLGRPDVLPQTPPLEEISEGSPIPDPSFSPLVGETLQMLTTSTTLEKLEVAESEFTH
B3: MFAP3L, O75121 (protein)
chain: MDRLKSHLTVCFLPSVPFLILVSTLATAKSVTNSTLNGTNVVLGSVPVIIARTDHIIVKEGNSALINCSVYGIPDPQFKWYNSIGKLLKEEEDEKERGGGKWQMHDSGLLNITKVSFSDRGKYTCVASNIYGTVNNTVTLRVIFTSGDMGVYYMVVCLVAFTIVMVLNITRLCMMSSHLKKTEKAINEFFRTEGAEKLQKAFEIAKRIPIITSAKTLELAKVTQFKTMEFARYIEELARSVPLPPLIMNCRTIMEEIMEVVGLEEQGQNFVRHTPEGQEAADRDEVYTIPNSLKRSDSPAADSDASSLHEQPQQIAIKVSVHPQSKKEHADDQEGGQFEVKDVEETELSAEHSPETAEPSTDVTSTELTSEEPTPVEVPDKVLPPAYLEATEPAVTHDKNTCIIYESHV
B4: TCF7L1, Q9HCS4 (protein)
chain: MPQLGGGGGGGGGGSGGGGGSSAGAAGGGDDLGANDELIPFQDEGGEEQEPSSDSASAQRDLDEVKSSLVNESENQSSSSDSEAERRPQPVRDTFQKPRDYFAEVRRPQDSAFFKGPPYPGYPFLMIPDLSSPYLSNGPLSPGGARTYLQMKWPLLDVPSSATVKDTRSPSPAHLSNKVPVVQHPHHMHPLTPLITYSNDHFSPGSPPTHLSPEIDPKTGIPRPPHPSELSPYYPLSPGAVGQIPHPLGWLVPQQGQPMYSLPPGGFRHPYPALAMNASMSSLVSSRFSPHMVAPAHPGLPTSGIPHPAIVSPIVKQEPAPPSLSPAVSVKSPVTVKKEEEKKPHVKKPLNAFMLYMKEMRAKVVAECTLKESAAINQILGRKWHNLSREEQAKYYELARKERQLHSQLYPTWSARDNYGKKKKRKREKQLSQTQSQQQVQEAEGALASKSKKPCVQYLPPEKPCDSPASSHGSMLDSPATPSAALASPAAPAATHSEQAQPLSLTTKPETRAQLALHSAAFLSAKAAASSSGQMGSQPPLLSRPLPLGSMPTALLASPPSFPATLHAHQALPVLQAQPLSLVTKSAH
B5: APLN, Q9ULZ1 (protein)
chain: MNLRLCVQALLLLWLSLTAVCGGSLMPLPDGNGLEDGNVRHLVQPRGSRNGPGPWQGGRRKFRRQRPRLSHKGPMPF
B6: BCKDHB, P21953 (protein)
chain: MAVVAAAAGWLLRLRAAGAEGHWRRLPGAGLARGFLHPAATVEDAAQRRQVAHFTFQPDPEPREYGQTQKMNLFQSVTSALDNSLAKDPTAVIFGEDVAFGGVFRCTVGLRDKYGKDRVFNTPLCEQGIVGFGIGIAVTGATAIAEIQFADYIFPAFDQIVNEAAKYRYRSGDLFNCGSLTIRSPWGCVGHGALYHSQSPEAFFAHCPGIKVVIPRSPFQAKGLLLSCIEDKNPCIFFEPKILYRAAAEEVPIEPYNIPLSQAEVIQEGSDVTLVAWGTQVHVIREVASMAKEKLGVSCEVIDLRTIIPWDVDTICKSVIKTGRLLISHEAPLTGGFASEISSTVQEECFLNLEAPISRVCGYDTPFPHIFEPFYIPDKWKCYDALRKMINY

molecular target: SARS-CoV-2 NSP10; test: yeast fitness gain over the viral ORF with no human partner (scaled fitness); higher = more likely to interact
Protocol: (§1)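 Split mouse DHFR complementation in pooled diploid yeast: human ORFeome clones carry one fragment and viral ORFs the other; barcoded lineages compete in 1 µg/mL methotrexate and fitness is read by barcode sequencing in up to three cultures.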

Row | Binder | yeast fitness gain
1 | B1 | inactive: -0.0569
2 | B2 | inactive: 0.0173
3 | B3 | inactive: -0.045
4 | B4 | inactive: -0.0674
5 | B5 | inactive: 0.00548
6 | B6 | inactive: -0.225

molecular target: SARS-CoV-2 NSP12; test: as above
Protocol: as §1

Row | Binder | yeast fitness gain
7 | B1 | inactive: -0.0657

molecular target: SARS-CoV-2 NSP13; test: as above
Protocol: as §1

Row | Binder | yeast fitness gain
8 | B1 | inactive: -0.105
9 | B3 | inactive: -0.178

molecular target: SARS-CoV-2 NSP15; test: as above
Protocol: as §1

Row | Binder | yeast fitness gain
10 | B1 | inactive: 0.00236

molecular target: SARS-CoV-2 NSP2; test: as above
Protocol: as §1

Row | Binder | yeast fitness gain
11 | B1 | inactive: -0.261
12 | B4 | inactive: -0.215
13 | B5 | inactive: -0.178

molecular target: SARS-CoV-2 NSP5; test: as above
Protocol: as §1

Row | Binder | yeast fitness gain
14 | B1 | inactive: 0.0414

molecular target: SARS-CoV-2 NSP6; test: as above
Protocol: as §1

Row | Binder | yeast fitness gain
15 | B1 | inactive: 0.027

molecular target: SARS-CoV-2 NSP7; test: as above
Protocol: as §1

Row | Binder | yeast fitness gain
16 | B1 | inactive: -0.0309

molecular target: SARS-CoV-2 NSP8; test: as above
Protocol: as §1

Row | Binder | yeast fitness gain
17 | B1 | inactive: 0.0187

molecular target: SARS-CoV-2 ORF10; test: as above
Protocol: as §1

Row | Binder | yeast fitness gain
18 | B1 | inactive: -0.0731

molecular target: SARS-CoV-2 ORF3A; test: as above
Protocol: as §1

Row | Binder | yeast fitness gain
19 | B1 | inactive: -0.0882

molecular target: SARS-CoV-2 ORF3B; test: as above
Protocol: as §1

Row | Binder | yeast fitness gain
20 | B1 | inactive: 0.0141
21 | B6 | inactive: -0.0241

molecular target: SARS-CoV-2 ORF6; test: as above
Protocol: as §1

Row | Binder | yeast fitness gain
22 | B1 | inactive: 0.0546
23 | B2 | inactive: -0.129
24 | B3 | inactive: 0.089
25 | B4 | inactive: -0.0625

molecular target: SARS-CoV-2 ORF7A; test: as above
Protocol: as §1

Row | Binder | yeast fitness gain
26 | B1 | inactive: 0.0125
27 | B4 | inactive: -0.182

molecular target: SARS-CoV-2 ORF7B; test: as above
Protocol: as §1

Row | Binder | yeast fitness gain
28 | B1 | inactive: -0.297
29 | B5 | inactive: -0.159

molecular target: SARS-CoV-2 ORF8; test: as above
Protocol: as §1

Row | Binder | yeast fitness gain
30 | B1 | inactive: -0.242
31 | B6 | inactive: 0.0972

molecular target: SARS-CoV-2 ORF9B; test: as above
Protocol: as §1

Row | Binder | yeast fitness gain
32 | B1 | inactive: 0.0485
33 | B5 | inactive: -9.2e-05

molecular target: SARS-CoV-2 ORF9Bwu (the 73-codon ORF); test: as above
Protocol: as §1

Row | Binder | yeast fitness gain
34 | B1 | inactive: -0.0313

molecular target: SARS-CoV-2 S; test: as above
Protocol: as §1

Row | Binder | yeast fitness gain
35 | B1 | inactive: -0.092
